Certain results were filed several times, with different values. The other results are left out here. An entry can have further records. The records of an entry seem to repeat one measurement (runs, samples, wells or individuals).

Here are results for one molecule from US20080115231A1.

The test deals with NAP-1 IgG (nesfatin-1 IgG). Nature of the test: competitive EIA; unlabelled recombinant nesfatin-1 against biotin-labelled nesfatin-1 on immobilized nesfatin-1 IgG.

B1: recombinant mouse nesfatin-1 (Working Example 16) (peptide)
peptide: VPIDVDKTKVHNTEPVENARIEPPDTGLYYDEYLKQVIEVLETDPHFREKLQKADIEEIRSGRLSQELDLVSHKVRTRLDEL
In the case of B1, the sensitivity of the competitive EIA system was 4.6 ng/tube and 93 ng/ml.
